Measured values as given in the supplement of paper PMC11125491.
± gives the standard deviation of the averaged measurements. Growth of baker's yeast expressing single-residue variants of Pneumocystis jirovecii dihydrofolate reductase in 8.8 or 44 µM methotrexate (about 75% and 90% inhibition of the wild type). Selection coefficient per generation; 0 = like wild type, above 0 = less sensitive, below 0 = more sensitive or loss of function. No active / inactive call per row; the paper calls resistant above 0.220 (8.8 µM) or 0.243 (44 µM) together with a significance test. At 44 µM about 15% of codons end with one read or none, so the lowest values are floors (replicate rank correlation 0.74; 0.94 at 8.8 µM).

B1: UniProt A0EPZ9; numbered along this chain (parent)
chain: MDWQKSLTLIVALTLSRGIGLKNDLPWKLKSDMMFFSRVTSGLLVTRSTGQMNVVLMGRKTWESLPAHSRPLKNRINVVISRQEVLDLGGGAYHARSLDDALALLSQIYDSTSKIQLNRVFVIGGGELCKAAMEHSRLNRIIATVIHNEVDCDVFFPIDFRSSQSCLPWRKQDHSVLEAWVGSKVPQGKINENGFIYEFEMWIRDI

Variants of: B1
Test: selection coefficient against synonymous wild-type codons (log2 per generation); higher = faster growth than wild type
Conditions: with Saccharomyces cerevisiae carrying the variant on a plasmid
Protocol: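 Pooled growth of yeast carrying single-residue variants of P. jirovecii dihydrofolate reductase (own DFR1 gene intact), two passages at 30 °C, three cultures, sequenced before and after. Codons with under 15 starting reads are left out; codons of one change are averaged.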

| Variant | selection coefficient against synonymous wild-type codons (log2) (methotrexate 8.8 µM) | selection coefficient against synonymous wild-type codons (log2) (methotrexate 44 µM) |
| --- | --- | --- |
| D159V | -0.0436 ± 0.057 | -0.199 ± 0.15 |
| D159I | -0.0817 ± 0.044 | -0.159 ± 0.015 |
| F156C | 0.165 ± 0.072 | 0.129 ± 0.047 |
| F156W | 0.582 ± 0.038 | 0.708 ± 0.026 |
| F156R | -0.406 ± 0.081 | -0.271 ± 0.11 |
| F156P | -0.155 ± 0.082 | -0.0508 ± 0.12 |
| F156H | 0.519 ± 0.049 | 0.596 ± 0.038 |
| F156E | 0.525 ± 0.041 | 0.637 ± 0.02 |
| F156V | 0.0981 ± 0.041 | 0.108 ± 0.052 |
| F156T | 0.557 ± 0.048 | 0.646 ± 0.032 |
| F156Y | 0.36 ± 0.059 | 0.37 ± 0.026 |
| F156D | 0.126 ± 0.084 | 0.319 ± 0.031 |
| F156S | 0.634 ± 0.047 | 0.771 ± 0.044 |
| F156N | 0.641 ± 0.046 | 0.831 ± 0.043 |
| F156G | 0.513 ± 0.04 | 0.619 ± 0.042 |
| F156A | 0.316 ± 0.044 | 0.306 ± 0.03 |
| F156L | 0.431 ± 0.03 | 0.466 ± 0.035 |
| F156I | 0.205 ± 0.053 | 0.159 ± 0.054 |
| F156M | 0.283 ± 0.032 | 0.264 ± 0.015 |
| F156Q | 0.578 ± 0.043 | 0.71 ± 0.036 |
| F156K | -0.255 ± 0.057 | -0.181 ± 0.096 |
| I158F | -0.00748 ± 0.073 | -0.00147 ± 0.039 |
| I158V | -0.00553 ± 0.048 | -0.0877 ± 0.092 |
| I158H | 0.0575 ± 0.054 | 0.00873 ± 0.056 |

| Variant | selection coefficient against synonymous wild-type codons (log2) (methotrexate 8.8 µM) | selection coefficient against synonymous wild-type codons (log2) (methotrexate 44 µM) |
| --- | --- | --- |
| I158A | 0.0723 ± 0.056 | -0.0427 ± 0.094 |
| I158K | 0.0907 ± 0.034 | 0.046 ± 0.041 |
| I158C | -0.0591 ± 0.04 | -0.143 ± 0.07 |
| I158P | 0.345 ± 0.06 | 0.27 ± 0.1 |
| I158W | 0.0462 ± 0.051 | -0.118 ± 0.075 |
| I158Q | 0.067 ± 0.058 | 0.00053 ± 0.048 |
| I158Y | 0.0164 ± 0.026 | -0.0246 ± 0.017 |
| I158E | 0.0553 ± 0.053 | 0.0299 ± 0.045 |
| I158D | 0.0369 ± 0.035 | -0.000802 ± 0.065 |
| I158N | 0.0501 ± 0.037 | -0.0312 ± 0.054 |
| I158G | 0.0746 ± 0.052 | 0.0462 ± 0.027 |
| I158M | -0.00917 ± 0.053 | -0.0505 ± 0.13 |
| I158T | 0.00976 ± 0.053 | 0.0219 ± 0.077 |
| I158L | 0.0166 ± 0.031 | -0.0583 ± 0.1 |
| I158S | 0.0135 ± 0.056 | -0.0781 ± 0.081 |
| I158R | 0.043 ± 0.05 | -0.0173 ± 0.095 |
| V154P | -0.464 ± 0.16 | -0.188 ± 0.067 |
| V154E | 0.383 ± 0.038 | 0.485 ± 0.035 |
| V154A | 0.123 ± 0.043 | -0.0501 ± 0.11 |
| V154Q | 0.422 ± 0.052 | 0.426 ± 0.034 |
| V154S | 0.329 ± 0.025 | 0.328 ± 0.062 |
| V154L | 0.164 ± 0.057 | 0.133 ± 0.081 |
| V154H | 0.25 ± 0.023 | 0.0928 ± 0.05 |
| V154W | -0.0494 ± 0.063 | -0.139 ± 0.12 |

| Variant | selection coefficient against synonymous wild-type codons (log2) (methotrexate 8.8 µM) | selection coefficient against synonymous wild-type codons (log2) (methotrexate 44 µM) |
| --- | --- | --- |
| V154M | 0.0806 ± 0.017 | 0.0646 ± 0.016 |
| V154I | 0.14 ± 0.044 | -0.0451 ± 0.075 |
| V154D | 0.276 ± 0.032 | 0.442 ± 0.055 |
| V154Y | -0.1 ± 0.061 | -0.048 ± 0.095 |
| V154N | 0.363 ± 0.074 | 0.384 ± 0.021 |
| V154K | 0.351 ± 0.046 | 0.345 ± 0.055 |
| V154C | 0.0669 ± 0.051 | 0.0854 ± 0.088 |
| V154R | 0.359 ± 0.068 | 0.393 ± 0.044 |
| V154F | -0.0541 ± 0.069 | -0.077 ± 0.089 |
| V154G | 0.381 ± 0.019 | 0.536 ± 0.02 |
| V154T | 0.096 ± 0.063 | -0.0213 ± 0.012 |
| S163G | -0.0304 ± 0.048 | -0.0659 ± 0.062 |
| S163Y | -0.11 ± 0.12 | -0.196 ± 0.072 |
| S163D | 0.00417 ± 0.017 | -0.0659 ± 0.018 |
| S163T | -0.0356 ± 0.039 | -0.0447 ± 0.061 |
| S163H | -0.0115 ± 0.096 | -0.0748 ± 0.12 |
| S163R | -0.107 ± 0.049 | -0.139 ± 0.11 |
| S163Q | 0.0352 ± 0.048 | 0.00385 ± 0.03 |
| S163P | -0.00587 ± 0.036 | 0.0741 ± 0.27 |
| S163M | -0.0143 ± 0.022 | -0.00207 ± 0.021 |
| S163L | -0.0653 ± 0.062 | -0.0162 ± 0.11 |
| S163V | -0.038 ± 0.036 | -0.156 ± 0.1 |
| S163E | 0.00331 ± 0.036 | -0.0246 ± 0.12 |
| S163C | -0.118 ± 0.068 | -0.169 ± 0.03 |

| Variant | selection coefficient against synonymous wild-type codons (log2) (methotrexate 8.8 µM) | selection coefficient against synonymous wild-type codons (log2) (methotrexate 44 µM) |
| --- | --- | --- |
| S163W | -0.184 ± 0.065 | 0.115 ± 0.2 |
| S163F | -0.0863 ± 0.058 | -0.149 ± 0.092 |
| S163K | 0.00428 ± 0.031 | -0.12 ± 0.092 |
| S163A | -0.0366 ± 0.055 | -0.119 ± 0.1 |
| S163N | 0.0357 ± 0.018 | -0.0184 ± 0.059 |
| S163I | -0.104 ± 0.012 | -0.158 ± 0.18 |
| S162T | -0.0473 ± 0.035 | -0.0883 ± 0.074 |
| S162M | -0.0481 ± 0.042 | -0.174 ± 0.14 |
| S162W | -0.103 ± 0.051 | -0.122 ± 0.078 |
| S162V | -0.128 ± 0.06 | -0.255 ± 0.23 |
| S162I | -0.0536 ± 0.038 | 0.00895 ± 0.12 |
| S162F | -0.038 ± 0.022 | -0.15 ± 0.12 |
| S162A | -0.0203 ± 0.045 | -0.0748 ± 0.17 |
| S162H | -0.0517 ± 0.069 | -0.228 ± 0.11 |
| S162R | -0.0669 ± 0.039 | -0.172 ± 0.12 |
| S162L | -0.0135 ± 0.063 | -0.0564 ± 0.11 |
| S162E | 0.0277 ± 0.012 | 0.00277 ± 0.09 |
| S162Q | -0.0688 ± 0.026 | -0.169 ± 0.18 |
| S162K | -0.017 ± 0.045 | -0.111 ± 0.043 |
| S162N | -0.00947 ± 0.034 | -0.112 ± 0.17 |
| S162C | -0.139 ± 0.074 | -0.136 ± 0.12 |
| S162Y | -0.131 ± 0.0023 | -0.0972 ± 0.18 |
| S162P | 0.0938 ± 0.064 | 0.0621 ± 0.095 |
| S162D | 0.0357 ± 0.035 | -0.0936 ± 0.1 |

| Variant | selection coefficient against synonymous wild-type codons (log2) (methotrexate 8.8 µM) | selection coefficient against synonymous wild-type codons (log2) (methotrexate 44 µM) |
| --- | --- | --- |
| S162G | 0.000451 ± 0.055 | -0.0162 ± 0.085 |
| F155S | 0.352 ± 0.049 | 0.343 ± 0.035 |
| F155D | 0.536 ± 0.039 | 0.576 ± 0.02 |
| F155H | 0.142 ± 0.086 | 0.0749 ± 0.091 |
| F155E | 0.46 ± 0.052 | 0.49 ± 0.026 |
| F155V | 0.24 ± 0.051 | 0.176 ± 0.052 |
| F155Q | 0.341 ± 0.034 | 0.343 ± 0.017 |
| F155T | 0.332 ± 0.035 | 0.308 ± 0.045 |
| F155Y | 0.000913 ± 0.04 | 0.0977 ± 0.035 |
| F155N | 0.346 ± 0.067 | 0.281 ± 0.097 |
| F155K | 0.29 ± 0.036 | 0.242 ± 0.018 |
| F155W | 0.0171 ± 0.017 | 0.0377 ± 0.027 |
| F155P | 0.407 ± 0.038 | 0.469 ± 0.026 |
| F155I | 0.184 ± 0.037 | 0.17 ± 0.094 |
| F155L | 0.148 ± 0.047 | 0.0829 ± 0.037 |
| F155A | 0.419 ± 0.041 | 0.414 ± 0.032 |
| F155C | 0.18 ± 0.06 | 0.115 ± 0.08 |
| F155M | 0.193 ± 0.02 | 0.147 ± 0.04 |
| F155R | 0.214 ± 0.058 | 0.156 ± 0.075 |
| F155G | 0.516 ± 0.034 | 0.6 ± 0.033 |
